Laboratory results published in the supplement of paper PMC3334620.
The full ranking holds about 33,000 sequences; the median of “E-score (-0.5 to 0.5)” is about -0.036, and the highest 2% start at about 0.37. The list shows a part of the results.

biological target: T1, Yer064c (UniProt P40041); experiment: PBM E-score (8-mer binding enrichment) (E-score (-0.5 to 0.5)); higher = stronger / more preferred TF binding; most listed sequences are background and not binding sites; conditions: protein concentration: 200 nM; construct: GST-full length
T1 sequence: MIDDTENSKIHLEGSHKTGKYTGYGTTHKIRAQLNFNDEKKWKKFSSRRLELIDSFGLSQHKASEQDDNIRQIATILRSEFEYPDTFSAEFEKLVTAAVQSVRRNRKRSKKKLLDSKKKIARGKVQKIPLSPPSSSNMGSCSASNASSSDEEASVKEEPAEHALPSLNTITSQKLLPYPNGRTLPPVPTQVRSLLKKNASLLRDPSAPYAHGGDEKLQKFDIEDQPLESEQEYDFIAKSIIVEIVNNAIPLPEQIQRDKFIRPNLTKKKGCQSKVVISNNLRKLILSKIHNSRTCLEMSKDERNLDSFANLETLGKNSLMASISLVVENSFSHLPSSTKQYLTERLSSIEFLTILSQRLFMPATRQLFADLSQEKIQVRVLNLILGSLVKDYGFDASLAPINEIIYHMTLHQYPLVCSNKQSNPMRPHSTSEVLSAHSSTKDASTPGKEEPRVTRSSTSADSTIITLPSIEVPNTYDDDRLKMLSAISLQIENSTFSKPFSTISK
Procedure, shortened: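 Yeast transcription factors, full-length or as DNA-binding domains, were expressed with a GST tag using PURExpress in vitro transcription/translation. At about 100-200 nM they were applied to universal all-10-mer Agilent arrays, double-stranded by primer extension on fresh or once-stripped slides. Fluorescent anti-GST detected bound protein, and masliner normalised the scans. E-scores for ungapped eight-base words, pooled with reverse complements, came from the Universal PBM Analysis Suite.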

Going from TAGTCAAA to TTACGGAA, the “PBM E-score” value falls from 0.417 to 0.0639.

Compared with CGATCTTA, CGAAGAGC is lower in “PBM E-score” value: -0.114 for the first, -0.184 for the second.

Compared with ACGGTCCT, ATGCGCTA is higher in “PBM E-score” value: -0.379 for the first, -0.0478 for the second.

First: CCGCGTAA
Second: CTTAAGAC
The “PBM E-score” value of the first is lower: -0.0443 for the first, 0.0115 for the second.

First: ACGAGACG
Second: GTTTGCCA
The “PBM E-score” value of the first is lower: -0.224 for the first, -0.105 for the second.

Compared with AAACCCAT, AGTGCCGG is lower in “PBM E-score” value: 0.0621 for the first, -0.267 for the second.

Compared with AACCGTGT, ATGATGGG is lower in “PBM E-score” value: 0.0249 for the first, -0.00959 for the second.

Going from GCGTCAAC to ATAGCAAG, the “PBM E-score” value rises from -0.156 to -0.0436.

Going from CACTAAGC to AGCTTGAT, the “PBM E-score” value rises from 0.1 to 0.136.

Going from ACTGCACC to CACGCAAG, the “PBM E-score” value falls from 0.0587 to -0.11.

First: GTTAGTCA
Second: CGGGGACA
The “PBM E-score” value of the first is higher: 0.49 for the first, -0.232 for the second.

First: CGAGGAGA
Second: ATCTGTGC
The “PBM E-score” value of the first is lower: -0.232 for the first, -0.182 for the second.

Going from ACAGCGCG to AGGAAGTC, the “PBM E-score” value rises from -0.17 to 0.249.

Compared with AAGGCAAG, AGTAGATA is higher in “PBM E-score” value: -0.273 for the first, 0.129 for the second.

Going from AGTAATGA to CGCGCCTC, the “PBM E-score” value falls from 0.217 to -0.172.

Compared with GCCCGACC, AAGTCAGT is higher in “PBM E-score” value: -0.28 for the first, 0.362 for the second.

First: AGTTGCCC
Second: GGGAAAAA
The “PBM E-score” value of the first is higher: 0.00742 for the first, -0.0981 for the second.

First: AGCCCACC
Second: ACATTGAT
The “PBM E-score” value of the first is lower: -0.259 for the first, 0.0359 for the second.

Going from GAGGGCGA to CTGATTCC, the “PBM E-score” value rises from -0.23 to 0.301.

Compared with CAGAGGTC, CACGCCAC is higher in “PBM E-score” value: -0.121 for the first, -0.0464 for the second.

First: AAGCACGA
Second: AAAACAAA
The “PBM E-score” value of the first is lower: 0.0858 for the first, 0.0869 for the second.

Compared with CGTCACGC, CCCGATCC is lower in “PBM E-score” value: -0.184 for the first, -0.28 for the second.

Going from GCATTTAC to AATAGTTG, the “PBM E-score” value rises from -0.0629 to -0.0139.

Compared with ACACCAAA, GCACGTGC is lower in “PBM E-score” value: 0.0439 for the first, -0.277 for the second.

Compared with GCTGGAAC, CGGATTCC is lower in “PBM E-score” value: -0.129 for the first, -0.204 for the second.

Going from AGGTAACC to ATCTTTGA, the “PBM E-score” value rises from -0.00596 to 0.219.

First: GCCGACAA
Second: AAGCCCGT
The “PBM E-score” value of the first is higher: 0.0264 for the first, -0.241 for the second.

First: CTTCAGCA
Second: AAGACTAG
The “PBM E-score” value of the first is lower: -0.189 for the first, 0.338 for the second.

First: GTCTTGAA
Second: TAAAAACA
The “PBM E-score” value of the first is higher: 0.204 for the first, 0.107 for the second.

First: ACCCGATG
Second: GCACAGCC
The “PBM E-score” value of the first is higher: -0.109 for the first, -0.187 for the second.

Compared with CCAAACGC, TGGGTAAA is higher in “PBM E-score” value: -0.0483 for the first, 0.237 for the second.

Going from ACGTTGTG to CGGCGACA, the “PBM E-score” value falls from 0.0216 to -0.184.

First: AATGGGAG
Second: GACTCCGA
The “PBM E-score” value of the first is lower: -0.0134 for the first, 0.417 for the second.

Going from ACGTCTCC to GAGAAATC, the “PBM E-score” value rises from -0.0536 to 0.0251.

Going from AATAAACA to AGGTGGGA, the “PBM E-score” value falls from 0.183 to -0.185.

Going from ACCGCTGA to GGCATATA, the “PBM E-score” value falls from 0.0866 to -0.205.

First: GTTCCAAA
Second: ACCTCGAC
The “PBM E-score” value of the first is lower: -0.00663 for the first, -0.00179 for the second.

First: CTAGGGTA
Second: ATTCTATC
The “PBM E-score” value of the first is higher: 0.0333 for the first, -0.00335 for the second.

First: AGGACACC
Second: AATAGCAG
The “PBM E-score” value of the first is higher: -0.0221 for the first, -0.182 for the second.

Compared with AATCGGTG, GATCATGC is higher in “PBM E-score” value: -0.051 for the first, 0.134 for the second.

Going from TGAGAAAA to GCACTGCC, the “PBM E-score” value falls from 0.0732 to -0.4.

Going from CATTTCTC to AACCCCCA, the “PBM E-score” value falls from -0.0413 to -0.309.

Going from AAACCGAT to CAGCGGCC, the “PBM E-score” value falls from -0.0973 to -0.309.

Compared with GCGGCTCA, CGTTATAG is higher in “PBM E-score” value: 0.0261 for the first, 0.134 for the second.

Compared with ATGTGGTG, ACAACAGA is higher in “PBM E-score” value: 0.0728 for the first, 0.0838 for the second.

Compared with ACATATCG, TACCCGAA is higher in “PBM E-score” value: -0.147 for the first, -0.0763 for the second.

Going from CGCACCTA to ATAGGCAG, the “PBM E-score” value rises from -0.216 to -0.0153.

Compared with CGTACTTC, GAGGTTCA is higher in “PBM E-score” value: -0.119 for the first, -0.11 for the second.

First: AACTTATC
Second: ATCACCCC
The “PBM E-score” value of the first is lower: -0.0902 for the first, 0.276 for the second.

Compared with CCTAGCCG, CTAAAAAC is higher in “PBM E-score” value: -0.324 for the first, -0.0226 for the second.

First: AGCCCAGA
Second: GCGCGTCC
The “PBM E-score” value of the first is higher: -0.235 for the first, -0.31 for the second.

Going from ACTGATTA to TCGTGTCA, the “PBM E-score” value falls from 0.343 to -0.0428.

Compared with AAACTATG, ACGTTAAA is lower in “PBM E-score” value: 0.0568 for the first, -0.018 for the second.

Compared with CCCTGCGC, CCACGTAG is higher in “PBM E-score” value: -0.284 for the first, -0.243 for the second.

Compared with CGTGCTTC, CGTTAAAG is higher in “PBM E-score” value: -0.175 for the first, -0.037 for the second.

First: GCGCTTCA
Second: AAGGGGCG
The “PBM E-score” value of the first is lower: -0.248 for the first, -0.183 for the second.

Going from AAGACCAA to GAGACTGC, the “PBM E-score” value rises from 0.0859 to 0.217.

First: CGAAGCTA
Second: GCAACAAA
The “PBM E-score” value of the first is higher: 0.0165 for the first, -0.0156 for the second.

Compared with CGCCTCTA, CCGACAGA is higher in “PBM E-score” value: -0.162 for the first, 0.0526 for the second.

First: CCCCACAA
Second: ATGCTTGC
The “PBM E-score” value of the first is higher: -0.0398 for the first, -0.259 for the second.

Compared with ACATTACG, CTGTACAG is lower in “PBM E-score” value: -0.0962 for the first, -0.179 for the second.

First: AGGATCCT
Second: CTTTGGGA
The “PBM E-score” value of the first is higher: -0.0354 for the first, -0.039 for the second.

Going from CGGCGCCC to CGGCTCTC, the “PBM E-score” value rises from -0.232 to -0.115.

Compared with ATCGGGGA, AGCGGATA is lower in “PBM E-score” value: 0.0181 for the first, -0.203 for the second.

First: GAGCTCAA
Second: ACGTTCCT
The “PBM E-score” value of the first is higher: 0.122 for the first, -0.057 for the second.

First: CTAACAAG
Second: GGAATACA
The “PBM E-score” value of the first is lower: -0.0397 for the first, 0.05 for the second.

Compared with ACCAAGAG, AGAGGCGC is lower in “PBM E-score” value: -0.00272 for the first, -0.296 for the second.

Compared with ACGACCAC, ACGCCCCT is lower in “PBM E-score” value: 0.0554 for the first, -0.282 for the second.

First: GGCTAGAA
Second: AGAGTGAA
The “PBM E-score” value of the first is lower: 0.00723 for the first, 0.0764 for the second.

Going from CTCGCTTC to ACGGTAGC, the “PBM E-score” value falls from -0.0274 to -0.121.

First: ACATATGG
Second: CTACAACC
The “PBM E-score” value of the first is higher: 0.116 for the first, -0.0167 for the second.

Compared with GGCGCAGA, AACGTCGA is higher in “PBM E-score” value: -0.0877 for the first, 0.146 for the second.

First: CAAACGTG
Second: TAGCATAA
The “PBM E-score” value of the first is higher: 0.156 for the first, -0.171 for the second.

Compared with CACAATAG, GGCCGGAA is lower in “PBM E-score” value: 0.112 for the first, -0.146 for the second.

Compared with AAGACGGG, AGACGGAC is higher in “PBM E-score” value: -0.129 for the first, 0.0509 for the second.

Going from GACCGTAA to CAGCAGTA, the “PBM E-score” value falls from 0.11 to 0.0707.

Going from GCATTACC to CAGCTCTC, the “PBM E-score” value rises from -0.18 to -0.0938.

Compared with AAATCTTG, TAGGACTA is higher in “PBM E-score” value: 0.0238 for the first, 0.357 for the second.

Going from ATCCCCCA to GCCTAAGC, the “PBM E-score” value rises from -0.244 to -0.115.

Compared with ACTGGAAG, GAACGCCC is lower in “PBM E-score” value: 0.0296 for the first, -0.335 for the second.

First: ATGTGATA
Second: AATTACGT
The “PBM E-score” value of the first is lower: -0.0851 for the first, 0.0933 for the second.

Compared with AATTTGGC, ACGAGCGC is lower in “PBM E-score” value: -0.101 for the first, -0.267 for the second.

Going from ATTCGCCG to CGACACCA, the “PBM E-score” value falls from 0.0604 to -0.13.

Compared with CGCGTAAG, CAATTATC is higher in “PBM E-score” value: 0.0281 for the first, 0.0349 for the second.

Going from GTAGCGAA to CAGCGCCA, the “PBM E-score” value falls from -0.0282 to -0.141.

Going from TCTTTAAA to AGGGTTTA, the “PBM E-score” value falls from 0.171 to 0.0489.
